Results published in ChEMBL document CHEMBL4888484, “Replenishing the malaria drug discovery pipeline: Screening and hit evaluation of the MMV Hit Generation Library 1 (HGL1) against asexual blood stage Plasmodium falciparum ,using a nano luciferase reporter read-out” (2022).
The whole screen tested about 150,000 compounds, of which about 540 (0.36%) showed an effect of 50% or more. The list shows a part of the results.

Test system: Plasmodium falciparum
Assay: Primary screen in NF54 nanoGlo assay, in single point, at 2uM, 72h; a lower Z score goes with more inhibition
Type: functional, Erythrocyte
Conditions: timepoint 72 hour

Structure (SMILES) | % Inhibition [%] | Z score
CCN(CCCNc1cncc(Br)c1)S(C)(=O)=O | -15 | 2.36
CCCc1nc(-c2cc3cc(C)ccc3nc2NCc2ccco2)no1 | 15 | -1.82
CCCN(C(=O)c1cccs1)C1CCN(C(=O)[C@@H]2COCCO2)CC1 | 1 | -0.12
CC(CCc1ccc2c(c1)OCO2)NC1CCS(=O)(=O)C1 (stereo not given) | -8 | 1.32
N#Cc1c(NC(=O)CC(=O)Nc2sc3c(c2C#N)CCCCC3)sc2c1CCCCC2 | 3 | -0.47
O=C1[C@H](c2ccncc2)N(Cc2ccccc2)C(=O)CN1c1ccccc1 | 29 | -3.24
CCC[C@H]1CN(C(=O)CCc2c(C)n[nH]c2C)C[C@@H]1N(C)C | -15 | 1.66
CCCc1cc([C@@H]2CCCN2Cc2cccnc2)no1 | -13 | 1.81
CC(C)=C(F)C(=O)N1CC[C@H](CO)C[C@@H]1C | 36 | -0.69
Cc1c(S(=O)(=O)N(C)[C@H](C)c2cccnc2)cnn1C | 5 | -0.72
Cc1c(Cl)cccc1N1CCCN(C(=O)c2ccnn2C)CC1 | -11 | 1.87
O=C(c1ccncc1)N1CCC[C@@H]1Cn1ccnc1 | 2 | -0.39
O=C(NC1(c2ccccc2)COC1)[C@H]1CCc2[nH]ncc2C1 | -10 | 1.9
C#CCCC1(CCC(=O)N2CCc3ccc(F)cc3[C@@H](C)C2)N=N1 | -15 | 1.91
FC(F)(F)c1cccc(Cn2nc(-c3ccccc3)c3oc4ccccc4c32)c1 | -15 | 1.76
Cc1ccccc1C(=O)N1CC(=O)N2CCc3ccccc3[C@@H]2C1 | -4 | 0.56
Cn1nc(CN(C(=O)c2ccsc2)C2CCCC2)cc1C1CC1 | 16 | -2.05
COc1ccccc1CC(=O)N1CC[C@H](Oc2ccncc2Cl)C1 | -6 | 1.14
Cc1cc(NC(=O)C(c2ccccc2)c2ccccc2)sn1 | 0 | -0.02
O=C(COc1ccc(F)c(F)c1)N1CCOC[C@H]1c1ccco1 | 2 | -0.44
O=S(=O)(c1ccc2c(c1)CCO2)N1CCC[C@@H]1Cn1nccn1 | -4 | 0.72
Cc1ccc(Cl)cc1NS(=O)(=O)c1ccc(-c2nnc(C3CCC3)o2)s1 | -10 | 1.42

Structure (SMILES) | % Inhibition [%] | Z score
CN(CC1CCCCC1)[C@H]1CCc2nn(C)c(=O)n2CC1 | -4 | 0.67
COc1cccc(Cl)c1CC(=O)N[C@@]1(C)CCOC1 | 6 | -0.77
CC(C)OCC[C@H]1CCCCN1C(=O)c1cccc(C(=O)O)n1 | 32 | -3.23
CCCn1c(C)cnc1[C@H]1CCN(C(=O)NCc2ccc(C)cc2)C1 | -6 | 0.97
COc1ccc(CNc2cn(C)nc2-c2ccncc2)cc1Br | 0 | -0.03
COCc1sccc1C(=O)NC[C@H]1CC(C)(C)CO1 | -1 | 0.18
COC(=O)CC(C)(C)CC(=O)N(C)[C@H]1CCS(=O)(=O)C1 | -7 | 0.88
CC(C)(C)CC1(NC(=O)CCCn2cnnn2)CC1 | -7 | 1.32
O=C(N[C@H]1CCCc2occc21)c1ccncc1 | -2 | 0.17
C[C@H](O)C1CCN(C(=O)CCc2ccncc2)CC1 | -7 | 0.91
COc1cccc([C@H](CN2CCN(S(=O)(=O)c3c(C)nn(C)c3Cl)CC2)OCc2cccc(Cl)c2)c1 | 15 | -2.02
O=C1CC(c2ccccc2)=NN1c1c(Cl)cc(Cl)cc1Cl | -21 | 2.87
Cn1cc(Br)c(Cn2cnc3c(c2=O)CCC3)n1 | 1 | -0.15
CC[C@H]1CCCCN1CC(=O)N(C)Cc1[nH]c2ccccc2c1C | -2 | 0.34
O=C(c1nccn1Cc1ccccc1)N1CCCCCC1 | -18 | 3.07
CC1CCN(C(=O)CNc2ccc(C3CC3)c(F)c2)CC1 | -7 | 0.72
C[C@H]1CCCCN1CCCNC(=O)c1csc(NC(=O)c2ccccc2F)n1 | -3 | 0.41
COc1cc(OC)cc(C(=O)N2CCN(Cc3cc(C)no3)CC2)c1 | -5 | 0.78
O=C(CCc1nc(-c2ccc3cc[nH]c3c2)no1)N1CCOCC1 | -17 | 2.1
COCCN(CC(=O)N(Cc1ccc(C)cc1)C1CCN(S(C)(=O)=O)CC1)S(=O)(=O)c1ccccc1 | -16 | 2.18
O=C(CN1CCC(c2ccccn2)CC1)N1CCCCC1 | -8 | 1.19
COC(=O)c1ccc(Cn2cnc3c2c(=O)n(CC2CC2)c(=O)n3-c2ccccc2)cc1 | 1 | -0.16

Structure (SMILES) | % Inhibition [%] | Z score
N#Cc1ncn(CCc2cc(Cl)c3c(c2)OCCCO3)c1C#N | -7 | 0.71
CCN(CC(F)(F)F)C(=O)Nc1cccc(N2CCCC2)c1C | -8 | 0.94
CCc1nc(C#N)cc(N2CCC[C@@H]2CS(C)(=O)=O)n1 | -2 | 0.21
NC(=O)c1ccc(S(=O)(=O)c2ccc(C(N)=O)s2)s1 | -5 | 0.67
CC(C)(C)c1cnc(NC(=O)Nc2c[nH]nn2)s1 | 0 | -0.02
CNc1nnc(CC(=O)N2Cc3ccccc3OC3(CCC3)C2)s1 | -10 | 1.49
CC[C@@H](CO)NC(=O)Cc1ccc(NCc2ccc(C)o2)cc1 | -2 | 0.3
Cn1nc(C(F)F)cc1C(=O)NCC[C@H]1CCCOC1 | -5 | 0.88
N/C(CCN1C(=O)c2ccccc2C1=O)=N\OC(=O)C1CCCN2CCCCC12 (stereo not given) | -16 | 2.68
O=C1CC[C@@H](CN(Cc2ccccn2)C(=O)c2cc3c(s2)CCCC3)N1 | 4 | -0.77
CC(C(=O)N1CCNC(=O)CC1c1ccccc1)n1cccn1 (stereo not given) | -17 | 2.49
Cn1nccc1CN1CCCCc2c(Cl)cccc21 | -8 | 0.76
Cc1cc(OS(=O)(=O)c2cc(C)c(C)cc2C)c2ccccc2n1 | -41 | 4.77
c1nc(N2CC[C@H](OCCN3CCCCC3)C2)c2ccsc2n1 | -12 | 0.98
CCc1cc(CNC(=O)[C@H]2CCc3nnnn3CC2)on1 | -12 | 1.42
CC(C)CCNC(=O)CN1C(=O)N[C@@]2(CCS(=O)(=O)c3ccc(F)cc32)C1=O | -15 | 1.42
CC(C)c1cc(NC[C@@H](C(C)C)N(C)C)ncn1 | -5 | 0.77
CCn1cc(CN(C(=O)c2cc(C3CC3)nc3c2c(C)nn3C)c2cccc(C)c2)c(C)n1 | 0 | 0.01
CCOC(=O)N1CCN(C(=O)c2ccc(-c3ccc(Oc4ccccc4)cc3)nc2)CC1 | -8 | 1.23
COc1ccc(N2CCN(c3ncccc3-c3nc(-c4ccc(C)cc4)no3)CC2)cc1 | -6 | 0.87
Cc1nn(C)c(C)c1CNC(C1CC1)C(CO)C1CC1 (stereo not given) | -3 | 0.4
CC1CC(C)CC2(C1)NC(=O)N(CC(O)CC(F)(F)F)C2=O (stereo not given) | -13 | 1.31

Structure (SMILES) | % Inhibition [%] | Z score
C[C@@H](C(=O)Nc1ccn(C(C)(C)C(=O)O)n1)c1cccs1 | -1 | 0.18
CS(=O)(=O)c1ccc(Br)c(S(=O)(=O)NCCn2ncnn2)c1 | -11 | 1.64
Cc1nnc2cc(N3CCN(S(=O)(=O)c4ccc(Cl)cc4)CC3)cnn12 | 2 | -0.25
O=C(O)c1cccc(Cn2nnn(C3CC3)c2=O)c1 | -13 | 1.31
COC1(c2noc(-c3ccc(C)nc3C(C)C)n2)CCOCC1 | -9 | 0.94
CCN(CCNC(=O)NC1CCCC1)C1CC1 | -10 | 1.39
O=C1N[C@H]2C[C@@H](C(=O)NC[C@H]3O[C@H](CCOc4ccccc41)CC[C@@H]3O)N(C1CCC1)C2 | -6 | 1
COc1ccccc1[C@H]1C[C@@H](C)CCN1CCN1CCNC1=O | 4 | -0.32
Cc1oc(C)c(C(=O)N(C)c2ccccc2)c1C | -3 | 0.53
CCc1oc(C(=O)N(C)Cc2cc(C3CC3)[nH]n2)cc1CN1CCCC1 | 13 | -1.62
CC1CC(N)CCN1C(=O)c1ccc(Oc2ccc(C(F)(F)F)cn2)cc1 (stereo not given) | 15 | -1.88
CCOC(=O)Cc1csc(NC(=O)[C@@H]2CCCN2S(=O)(=O)c2ccccc2F)n1 | 0 | 0.02
CCN(CC)[C@@H](CNc1oc(-c2cccnc2)nc1C#N)c1ccc(C(C)C)cc1 | 5 | -0.69
COc1cccc(C2(NC(=O)C3CC4C=CC3C4)CCOCC2)c1F (stereo not given) | -5 | 0.58
COCCN1C(=O)c2ccc(C(=O)Nc3ccc4[nH]ccc4c3)cc2C1=O | -5 | 0.76
O=C1CC[C@@H](C(=O)N2CC(N3CCCC3=O)C2)n2cccc21 | -3 | 0.58
COc1cnc(N(C)S(=O)(=O)c2c(C)nn(C)c2Cl)nc1 | -9 | 1.26
Cc1scc(C(=O)NCc2ccccn2)c1C | -12 | 1.61
CCN(C)C(C)(C)CNC(=O)[C@H](C)n1cc(Cl)cn1 | -11 | 1.54
